Laboratory results as given in the supplement of paper PMC4604168 (melanoma cell lines).
This is one part of the list. Single values are uncertain, as repeats are few or missing.

Key:
Assay in all cases: cell count relative to DMSO control; melanoma cells; higher = more viable cells
Settings in all cases: library dose: low library concentration; 72 h
COLO792 = test system: COLO792
COLO800 = test system: COLO800
COLO829 = test system: COLO829
G361 = test system: G361
IPC-298 = test system: IPC-298
IST-MEL1 = test system: IST-MEL1
LB2518-MEL = test system: LB2518-MEL
LOXIMVI = test system: LOXIMVI
MEL-HO = test system: MEL-HO
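Also: cell number obtained by counting DAPI-stained nuclei in high-throughput microscope images with image analysis software, screen run in 1,536-well plates.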

Compound | cell count (COLO792) [%] | cell count (COLO800) [%] | cell count (COLO829) [%] | cell count (G361) [%] | cell count (IPC-298) [%] | cell count (IST-MEL1) [%] | cell count (LB2518-MEL) [%] | cell count (LOXIMVI) [%] | cell count (MEL-HO) [%]
O=C(O)c1ccc2c(c1)nc(Nc1cccc(Cl)c1)c1ccncc12 + O=C(O)c1ccc(-c2c[nH]c3ncc(-c4ccccc4)cc23)cc1C1CCCC1 [GSK650394] (first compound 0.4 µM, partner dose 0.16 µM) | 98 | 89.7 | 92 | 97 | 92.9 | 93.6 | 101 | 97.5 | 75.3
O=C(O)c1ccc2c(c1)nc(Nc1cccc(Cl)c1)c1ccncc12 + O=C(Nc1cccc(Cl)c1)Nc1ncc(CCNc2ncnc3ccsc23)s1 [SNS314] (first compound 0.4 µM, partner dose 0.0008 µM) | 91.8 | 85.5 | 78.8 | 83.4 | 98.4 | 104 | 116 | 74.2 | 92.1
O=C(O)c1ccc2c(c1)nc(Nc1cccc(Cl)c1)c1ccncc12 + O=C(Nc1ccccc1)c1cc([N+](=O)[O-])ccc1Cl [GW9662] (first compound 0.4 µM, partner dose 2 µM) | 91.6 | 96.9 | 71.6 | 96.6 | 93.6 | 103 | 119 | 69.6 | 79.3
O=C(O)c1ccc2c(c1)nc(Nc1cccc(Cl)c1)c1ccncc12 + COc1ccc(-c2ccc3c(N4CCOCC4)nc(N4C[C@@H](C)O[C@@H](C)C4)nc3n2)cc1CO [KU0063794] (first compound 0.4 µM, partner dose 0.02 µM) | 80.4 | 131 | 83.8 | 83.1 | 101 | 113 | 110 | 60.3 | 88.8
O=C(Nc1cc(C(F)(F)F)cc(C(F)(F)F)c1)c1cc(Cl)ccc1O + CCc1ccc(CCOc2ccc(CC3SC(=O)NC3=O)cc2)nc1 [pioglitazone] (first compound 0.016 µM, partner dose 2 µM) | 96.7 | 121 | 99.9 | 103 | 99.5 | 93 | 97.8 | 106 | 95.4
O=C(O)c1ccc2c(c1)nc(Nc1cccc(Cl)c1)c1ccncc12 + Cn1cncc1[C@@](N)(c1ccc(Cl)cc1)c1ccc2c(c1)c(-c1cccc(Cl)c1)cc(=O)n2C [tipifarnib] (first compound 0.4 µM, partner dose 0.01 µM) | 103 | 71.3 | 82.7 | 91 | 89.2 | 105 | 98.7 | 93.6 | 89
O=C(O)[C@@H]1[O][Sb](=[O])([O][Sb]2(=[O])[O][C@H]([C@H](O)CO)[C@H](O)[C@H](C(=O)O)[O]2)[O][C@H]([C@H](O)CO)[C@@H]1O (some centres not stated) [stibogluconate] + COc1ccc(-c2ccc3c(N4CCOCC4)nc(N4C[C@@H](C)O[C@@H](C)C4)nc3n2)cc1CO [KU0063794] (first compound 2 µM, partner dose 0.02 µM) | 87.2 | 90.6 | 100 | 102 | 96.1 | 106 | 103 | 77 | 103
Cn1nnc2c(C(N)=O)ncn2c1=O [temozolomide] + Cc1cc(N2CCOCC2)cc2[nH]c(-c3c(NC[C@@H](O)c4cccc(Cl)c4)cc[nH]c3=O)nc12 [BMS536924] (first compound 2 µM, partner dose 0.2 µM) | 88.2 | 49.7 | 96.8 | 89.7 | 84.2 | 94.8 | 106 | 43.6 | 93.8
O=C(O)[C@@H]1[O][Sb](=[O])([O][Sb]2(=[O])[O][C@H]([C@H](O)CO)[C@H](O)[C@H](C(=O)O)[O]2)[O][C@H]([C@H](O)CO)[C@@H]1O (some centres not stated) [stibogluconate] + Cc1ccc(NC(=O)c2cccc(N(C)C)c2)cc1NC(=O)c1ccc(O)cc1 [ZM336372] (first compound 2 µM, partner dose 2 µM) | 104 | 173 | 93.9 | 90.1 | 80.1 | 94 | 88.8 | 105 | 87.5
Cn1nnc2c(C(N)=O)ncn2c1=O [temozolomide] + CN(C)S(=O)(=O)c1ccc2c(c1)/C(=C/c1cc3c([nH]1)CCCC3)C(=O)N2 [SU6656] (first compound 2 µM, partner dose 0.4 µM) | 98.8 | 126 | 85 | 89.7 | 87.4 | 91 | 92.7 | 137 | 90.9
O=C(Nc1cc(C(F)(F)F)cc(C(F)(F)F)c1)c1cc(Cl)ccc1O + COc1cc2ncnc(Nc3ccc(Oc4ccccc4)cc3)c2cc1OC [SrcI1] (first compound 0.016 µM, partner dose 2 µM) | 99.3 | 117 | 113 | 108 | 89.6 | 96.9 | 75 | 137 | 92
O=C(O)[C@@H]1[O][Sb](=[O])([O][Sb]2(=[O])[O][C@H]([C@H](O)CO)[C@H](O)[C@H](C(=O)O)[O]2)[O][C@H]([C@H](O)CO)[C@@H]1O (some centres not stated) [stibogluconate] + OCCn1cc(-c2cnc3nnn(Cc4ccc5ncccc5c4)c3n2)cn1 [PF04217903] (first compound 2 µM, partner dose 1 µM) | 86.7 | 103 | 96 | 112 | 98.5 | 94.7 | 102 | 85.5 | 93.7
O=C(Nc1cc(C(F)(F)F)cc(C(F)(F)F)c1)c1cc(Cl)ccc1O + COc1ccc(-c2ccc3c(N4CCOCC4)nc(N4C[C@@H](C)O[C@@H](C)C4)nc3n2)cc1CO [KU0063794] (first compound 0.016 µM, partner dose 0.02 µM) | 91.5 | 90.4 | 100 | 99.9 | 93.4 | 99.5 | 103 | 85.6 | 97.4
O=C(O)[C@@H]1[O][Sb](=[O])([O][Sb]2(=[O])[O][C@H]([C@H](O)CO)[C@H](O)[C@H](C(=O)O)[O]2)[O][C@H]([C@H](O)CO)[C@@H]1O (some centres not stated) [stibogluconate] + O=C(O)C(=O)Nc1sc2c(c1C(=O)O)CCNC2 [TCS401] (first compound 2 µM, partner dose 1.66667 µM) | 92.7 | 108 | 82.7 | 107 | 97.2 | 105 | 110 | 94.5 | 96.3
Cn1nnc2c(C(N)=O)ncn2c1=O [temozolomide] + COc1cc2c(Oc3ccc4[nH]c(C)cc4c3F)ncnc2cc1OCCCN1CCCC1 [cediranib] (first compound 2 µM, partner dose 0.4 µM) | 93.5 | 60.4 | 79.4 | 104 | 87 | 94.2 | 102 | 102 | 86.7
O=C(O)[C@@H]1[O][Sb](=[O])([O][Sb]2(=[O])[O][C@H]([C@H](O)CO)[C@H](O)[C@H](C(=O)O)[O]2)[O][C@H]([C@H](O)CO)[C@@H]1O (some centres not stated) [stibogluconate] + Oc1cc(-c2nc(-c3ccccc3)[nH]c2-c2ccncc2)ccc1Cl [L779450] (first compound 2 µM, partner dose 0.2 µM) | 96.5 | 126 | 117 | 86.5 | 91.7 | 105 | 83.3 | 81.9 | 93.5
O=C(Nc1cc(C(F)(F)F)cc(C(F)(F)F)c1)c1cc(Cl)ccc1O + O=C(Nc1cccc(Cl)c1)Nc1ncc(CCNc2ncnc3ccsc23)s1 [SNS314] (first compound 0.016 µM, partner dose 0.0008 µM) | 88.3 | 84.3 | 102 | 92.3 | 96.5 | 95.9 | 89.4 | 69.8 | 99.6
O=C(O)[C@@H]1[O][Sb](=[O])([O][Sb]2(=[O])[O][C@H]([C@H](O)CO)[C@H](O)[C@H](C(=O)O)[O]2)[O][C@H]([C@H](O)CO)[C@@H]1O (some centres not stated) [stibogluconate] + C=CCn1c(=O)c2cnc(Nc3ccc(N4CCN(C)CC4)cc3)nc2n1-c1cccc(C(C)(C)O)n1 [MK1775] (first compound 2 µM, partner dose 0.02 µM) | 91.7 | 202 | 109 | 98.6 | 105 | 108 | 89.7 | 116 | 80.7
Cc1cc(N2CCOCC2)cc2[nH]c(-c3c(NC[C@@H](O)c4cccc(Cl)c4)cc[nH]c3=O)nc12 + O=C(Nc1cccc(Cl)c1)Nc1ncc(CCNc2ncnc3ccsc23)s1 [SNS314] (first compound 0.2 µM, partner dose 0.0008 µM) | 67.4 | 49.3 | 109 | 93.9 | 86.9 | 97.5 | 88.2 | 67.4 | 95.5
O=C(Nc1cc(C(F)(F)F)cc(C(F)(F)F)c1)c1cc(Cl)ccc1O + CN(NC(=O)CC(=O)NN(C)C(=S)c1ccccc1)C(=S)c1ccccc1 [STA4783] (first compound 0.016 µM, partner dose 0.006 µM) | 77.1 | 34.2 | 71.3 | 88.2 | 96.7 | 69.5 | 78.8 | 80.7 | 98.9
O=C(Nc1cc(C(F)(F)F)cc(C(F)(F)F)c1)c1cc(Cl)ccc1O + O=c1cc(-c2cccc3c2Sc2ccccc2S3)oc(N2CCOCC2)c1 [KU55933] (first compound 0.016 µM, partner dose 1 µM) | 97.3 | 125 | 105 | 104 | 91.9 | 103 | 97.2 | 103 | 99.1
Cn1nnc2c(C(N)=O)ncn2c1=O [temozolomide] + O=C(O)c1ccc(-c2c[nH]c3ncc(-c4ccccc4)cc23)cc1C1CCCC1 [GSK650394] (first compound 2 µM, partner dose 0.16 µM) | 92.4 | 103 | 83.1 | 107 | 90.8 | 94.4 | 97.8 | 103 | 86.6
Cn1nnc2c(C(N)=O)ncn2c1=O [temozolomide] + NCC(=O)Nc1ccc(-n2nc(C(F)(F)F)cc2-c2ccc3c(ccc4ccccc43)c2)cc1 [OSU03012] (first compound 2 µM, partner dose 1 µM) | 96 | 69.9 | 91.6 | 105 | 83.9 | 86.4 | 101 | 109 | 106
